The supplement of paper PMC12217912
Some of the results follow. Sequences were assembled here from the parent chain. Inactive controls read about 0.05.

B1: TEV protease; numbered along this chain (parent)
chain: MGESLFKGPRDYNPISSSICHLTNESDGHTTSLYGIGFGPFIITNKHLFRRNNGTLVVQSLHGVFKVKDTTTLQQHLVDGRDMIIIRMPKDFPPFPQKLKFREPQREERICLVTTNFQTKSMSSMVSDTSCTFPSGDGIFWKHWIQTKDGQCGSPLVSTRDGFIVGIHSASNFTNTNNYFTSVPKNFMELLTNQEAQQWVSGWRLNADSVLWGGHKVFMVKPEEPFQPVKEATQL

Variants of: B1
Assay: raw area under fraction-flipped curve 0-4 h after induction (AUC4h, not background-subtracted), DNA-recorder readout of cleavage of the substrate (dimensionless); higher = more cleavage of the substrate by the protease variant
Conditions: temperature: 34 °C; time window: 0-4 h after rhamnose induction
Method: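 In vivo DNA recorder in E. coli TOP10(DE3) ΔrhaA at 34 °C. Each TEVp single-site mutant (parent TEVp 0) is paired with a single-site variant of the 7-mer TEVs (canonical ENLYFQ|S). The substrate sits between flexible linkers in a Bxb1-sfGFP-TEVs-SsrA fusion, so cleavage stabilises Bxb1 and speeds flipping of a recombination array, read by NGS. The value is the raw area under the fraction-flipped curve over 0-4 h after rhamnose induction (AUC4h), with ≥20 reads per time point. It is not background-subtracted; inactive controls average about 0.047.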
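Further: Bxb1 expression induced with 0.2% (w/v) L-rhamnose at OD600 near 0.5, cultures sampled hourly, flipped fraction per protease–substrate barcode pair counted by paired-end Illumina sequencing.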

| Variant | area with substrate CNLYFQS | area with substrate FNLYFQS | area with substrate GNLYFQS | area with substrate HNLYFQS | area with substrate MNLYFQS | area with substrate TNLYFQS | area with substrate WNLYFQS | area with substrate YNLYFQS | area with substrate INLYFQS | area with substrate PNLYFQS |
| --- | --- | --- | --- | --- | --- | --- | --- | --- | --- | --- |
| E3I | 0.0955 | 0.0684 | 0.0782 | 0.0546 | 0.0712 | 0.0707 | 0.0586 | 0.0673 | – | – |
| F117W | 0.0634 | – | 0.0804 | – | – | – | 0.0718 | 0.0515 | 0.0528 | 0.0635 |
| F117D | 0.0714 | 0.0727 | 0.0801 | 0.055 | – | – | 0.0576 | 0.0706 | – | 0.0625 |
| K100A | 0.0786 | 0.0606 | 0.0606 | 0.0718 | – | 0.0901 | 0.0605 | – | 0.0613 | – |
| K100M | 0.0669 | 0.0726 | 0.057 | 0.0956 | 0.0752 | 0.0768 | 0.0577 | – | 0.066 | 0.0716 |
| F49S | 0.0725 | 0.0508 | 0.0565 | 0.0434 | – | 0.0536 | 0.0542 | – | 0.0396 | 0.0432 |
| I110P | 0.0538 | 0.0558 | – | 0.0527 | – | – | 0.0575 | 0.0631 | – | – |
| L33C | 0.0477 | 0.0619 | – | 0.0673 | – | 0.0598 | 0.0552 | 0.0708 | 0.0764 | 0.0835 |
| K90Y | 0.0849 | – | – | – | – | 0.0635 | 0.0626 | 0.0765 | – | – |
| F65S | 0.0648 | – | – | – | 0.0723 | 0.0662 | – | 0.0486 | – | 0.0612 |
| P104E | 0.0256 | – | 0.0358 | 0.0519 | 0.0478 | – | 0.0524 | – | – | 0.0448 |
| G54F | 0.0522 | – | 0.076 | – | – | 0.0608 | 0.0902 | 0.0516 | – | 0.0549 |
| P93N | 0.0484 | – | – | – | 0.074 | 0.0825 | – | – | 0.0738 | – |
| P93Y | 0.0575 | – | – | – | – | – | – | – | – | 0.0613 |
| P93Q | 0.0742 | – | 0.0536 | 0.0675 | – | – | 0.0539 | – | 0.0537 | – |
| P93F | 0.0549 | 0.0632 | 0.0554 | 0.0634 | 0.0336 | 0.0484 | – | 0.0561 | 0.0559 | – |
| L61V | 0.0647 | – | 0.061 | 0.0631 | 0.0463 | – | 0.093 | – | 0.0755 | 0.0688 |
| L61Q | 0.0683 | – | 0.0912 | – | 0.0719 | 0.0642 | 0.0573 | – | – | 0.0763 |
| V58E | 0.0486 | – | – | 0.0243 | – | – | – | – | – | – |
| V58T | 0.0492 | – | – | – | – | – | 0.0422 | – | – | 0.0546 |
| V58Q | 0.0554 | 0.0362 | – | – | 0.0468 | 0.0575 | – | – | – | 0.0618 |

Same assay, conditions: temperature: 34 °C; time window: 0-4 h after rhamnose induction

| Variant | area with substrate QNLYFQS | area with substrate LNLYFQS | area with substrate SNLYFQS | area with substrate VNLYFQS | area with substrate KNLYFQS | area with substrate RNLYFQS | area with substrate NNLYFQS |
| --- | --- | --- | --- | --- | --- | --- | --- |
| F117W | 0.0715 | – | – | – | – | – | – |
| F117D | – | 0.0801 | 0.0733 | 0.0743 | – | – | – |
| K100A | – | – | – | 0.0829 | – | – | – |
| K100M | – | – | – | 0.0608 | 0.0755 | – | – |
| F49S | – | 0.0585 | 0.0416 | 0.0719 | 0.059 | 0.0436 | – |
| I110P | – | – | 0.0623 | – | – | – | – |
| L33C | – | – | – | – | 0.0796 | – | 0.0697 |
| K90Y | 0.0644 | – | – | – | 0.0595 | 0.0482 | – |
| F65S | – | – | – | – | 0.0637 | – | 0.0755 |
| P104E | – | 0.0704 | 0.0492 | – | 0.0505 | – | 0.0477 |
| G54F | 0.0491 | 0.0651 | 0.0561 | 0.0434 | – | – | – |
| P93Y | 0.0867 | 0.0603 | – | 0.0425 | 0.05 | – | – |
| P93Q | – | 0.0624 | 0.0728 | – | – | – | – |
| P93F | – | – | – | – | – | – | 0.0587 |
| L61V | – | 0.0576 | – | – | 0.0544 | – | – |
| L61Q | – | 0.0625 | – | 0.0655 | 0.079 | – | 0.0801 |
| V58Q | – | – | – | 0.0352 | – | – | 0.0552 |
